Data: the supplement of paper PMC4604168 (melanoma cell lines)
Some of the results follow. Many values rest on one well or one pass, so single values are uncertain.

How the values were obtained:
Test in all cases: cell count relative to DMSO control; melanoma cells; higher = more viable cells
Conditions in all cases: library dose: standard library concentration; 72 h
[1] = system: G361
[2] = system: IPC-298
[3] = system: IST-MEL1
[4] = system: LB2518-MEL
[5] = system: LOXIMVI
[6] = system: MEL-HO
[7] = system: MZ2-MEL
[8] = system: MeWo
[9] = system: RPMI7951
[10] = system: RVH-421
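Further: cells treated in 1,536-well plates, then fixed and DAPI-stained, with nuclei counted from automated high-throughput microscope images.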

Row | SMILES | cell count [1] [%] | cell count [2] [%] | cell count [3] [%] | cell count [4] [%] | cell count [5] [%] | cell count [6] [%] | cell count [7] [%] | cell count [8] [%] | cell count [9] [%] | cell count [10] [%]
1 | CC1(C)CCC(c2ccc(Cl)cc2)=C(CN2CCN(c3ccc(C(=O)NS(=O)(=O)c4ccc(N[C@H](CCN5CCOCC5)CSc5ccccc5)c(S(=O)(=O)C(F)(F)F)c4)cc3)CC2)C1 + CCc1ccc(CCOc2ccc(CC3SC(=O)NC3=O)cc2)nc1 [pioglitazone] (first compound 2 µM, partner dose 10 µM) | 64.9 | 93.8 | 83.1 | 85.7 | 55.3 | 62.4 | 118 | 79.5 | 57.1 | 67.2
2 | CC1(C)CCC(c2ccc(Cl)cc2)=C(CN2CCN(c3ccc(C(=O)NS(=O)(=O)c4ccc(N[C@H](CCN5CCOCC5)CSc5ccccc5)c(S(=O)(=O)C(F)(F)F)c4)cc3)CC2)C1 + Cc1cc([N+](=O)[O-])ccc1NS(=O)(=O)c1cc(Cl)ccc1Cl [FH535] (first compound 2 µM, partner dose 5 µM) | 20.5 | 43.1 | 34.2 | 73.5 | 95 | 17.8 | 62.2 | 54 | 27.3 | 30.2
3 | Cc1ccc(Nc2nccc(N(C)c3ccc4c(C)n(C)nc4c3)n2)cc1S(N)(=O)=O [Pazopanib] + O=C(CCCCCCC(=O)Nc1ccccc1)NO [vorinostat] (first compound 2 µM, partner dose 0.4 µM) | 60.1 | 64.7 | 90 | 68.3 | 82.8 | 93.3 | 63.3 | 82.9 | 74.9 | 101
4 | Cc1ccc(Nc2nccc(N(C)c3ccc4c(C)n(C)nc4c3)n2)cc1S(N)(=O)=O [Pazopanib] + O=C(Nc1ccccc1)c1cc([N+](=O)[O-])ccc1Cl [GW9662] (first compound 2 µM, partner dose 10 µM) | 87.5 | 78.1 | 104 | 63.7 | 79.8 | 85.2 | 65.4 | 63.5 | 85.4 | 99.8
5 | CC1(C)CCC(c2ccc(Cl)cc2)=C(CN2CCN(c3ccc(C(=O)NS(=O)(=O)c4ccc(N[C@H](CCN5CCOCC5)CSc5ccccc5)c(S(=O)(=O)C(F)(F)F)c4)cc3)CC2)C1 + C[C@@H](Oc1cc(-c2cnn(C3CCNCC3)c2)cnc1N)c1c(Cl)ccc(F)c1Cl [Crizotinib] (first compound 2 µM, partner dose 1 µM) | 74.1 | 94 | 69.4 | 52.4 | 78.7 | 56 | 80.9 | 69.3 | 38.1 | 58
6 | CC1(C)CCC(c2ccc(Cl)cc2)=C(CN2CCN(c3ccc(C(=O)NS(=O)(=O)c4ccc(N[C@H](CCN5CCOCC5)CSc5ccccc5)c(S(=O)(=O)C(F)(F)F)c4)cc3)CC2)C1 + CC(C)(C)c1cnc(CSc2cnc(NC(=O)C3CCNCC3)s2)o1 [SNS-032] (first compound 2 µM, partner dose 0.05 µM) | 71.8 | 110 | 72.5 | 50.3 | 25.7 | 70.3 | 81.9 | 89.5 | 6.45 | 73.6
7 | O=C(/C=C/c1cccnc1)NCCCCC1CCN(C(=O)c2ccccc2)CC1 + Nc1ncn([C@H]2C[C@H](O)[C@@H](CO)O2)c(=O)n1 [decitabine] (first compound 0.05 µM, partner dose 0.5 µM) | 1.82 | 13 | 19.7 | 43.7 | 81.6 | 19.1 | 12.9 | 65.5 | 70.2 | 16.5
8 | Cc1ccc(Nc2nccc(N(C)c3ccc4c(C)n(C)nc4c3)n2)cc1S(N)(=O)=O [Pazopanib] + Clc1ccc(Nc2nnc(Cc3ccncc3)c3ccccc23)cc1 [vatalanib] (first compound 2 µM, partner dose 10 µM) | 65.8 | 52 | 79.9 | 69.4 | 69.5 | 62.3 | 55.5 | 65.8 | 67.2 | 60.2
9 | CC1(C)CCC(c2ccc(Cl)cc2)=C(CN2CCN(c3ccc(C(=O)NS(=O)(=O)c4ccc(N[C@H](CCN5CCOCC5)CSc5ccccc5)c(S(=O)(=O)C(F)(F)F)c4)cc3)CC2)C1 + NC1(c2ccc(-c3nc4ccn5c(=O)[nH]nc5c4cc3-c3ccccc3)cc2)CCC1 [MK2206] (first compound 2 µM, partner dose 2 µM) | 60.5 | 93.4 | 58.1 | 68.4 | 36.6 | 35.2 | 79.6 | 68.9 | 21.3 | 30.9
10 | O=C(/C=C/c1cccnc1)NCCCCC1CCN(C(=O)c2ccccc2)CC1 + Cn1cc(/C=C2\C(=O)Nc3cccnc32)c2ccccc21 [GW441756] (first compound 0.05 µM, partner dose 2 µM) | 5.59 | 34.6 | 87.8 | 69.6 | 107 | 50.5 | 47.5 | 108 | 140 | 46.7
11 | Cc1ccc(Nc2nccc(N(C)c3ccc4c(C)n(C)nc4c3)n2)cc1S(N)(=O)=O [Pazopanib] + Nc1ncn([C@H]2C[C@H](O)[C@@H](CO)O2)c(=O)n1 [decitabine] (first compound 2 µM, partner dose 0.5 µM) | 78.1 | 59.9 | 88.8 | 63.3 | 111 | 73.1 | 62.5 | 81.5 | 56.5 | 93.9
12 | O=C(/C=C/c1cccnc1)NCCCCC1CCN(C(=O)c2ccccc2)CC1 + CO[C@H]1C[C@@H]2CC[C@@H](C)[C@@](O)(O2)C(=O)C(=O)N2CCCC[C@H]2C(=O)O[C@H]([C@H](C)C[C@@H]2CC[C@@H](OCCO)[C@H](OC)C2)CC(=O)[C@H](C)/C=C(\C)[C@@H](O)[C@@H](OC)C(=O)[C@H](C)C[C@H](C)/C=C/C=C/C=C/1C [everolimus] (first compound 0.05 µM, partner dose 0.1 µM) | 7.84 | 29.8 | 56.4 | 67.8 | 73.5 | 42.2 | 33.6 | 82.4 | 64.6 | 42.6
13 | O=C(/C=C/c1cccnc1)NCCCCC1CCN(C(=O)c2ccccc2)CC1 + CC(=O)c1c(C)c2cnc(Nc3ccc(N4CCNCC4)cn3)nc2n(C2CCCC2)c1=O [palbociclib] (first compound 0.05 µM, partner dose 0.2 µM) | 3.21 | 22.3 | 59.3 | 41.3 | 55.7 | 40.8 | 26.3 | 51.6 | 56.2 | 39.1
14 | O=C(/C=C/c1cccnc1)NCCCCC1CCN(C(=O)c2ccccc2)CC1 + CCc1ccc(CCOc2ccc(CC3SC(=O)NC3=O)cc2)nc1 [pioglitazone] (first compound 0.05 µM, partner dose 10 µM) | 2.64 | 31.5 | 50 | 67.6 | 83.4 | 43.4 | 44.3 | 114 | 99 | 24.2
15 | CC1(C)CCC(c2ccc(Cl)cc2)=C(CN2CCN(c3ccc(C(=O)NS(=O)(=O)c4ccc(N[C@H](CCN5CCOCC5)CSc5ccccc5)c(S(=O)(=O)C(F)(F)F)c4)cc3)CC2)C1 + O=c1cc(-c2cccc3c2Sc2ccccc2S3)oc(N2CCOCC2)c1 [KU55933] (first compound 2 µM, partner dose 5 µM) | 54.6 | 80.8 | 54.4 | 67.3 | 44.4 | 52.3 | 81.7 | 83.7 | 35 | 66.8
16 | O=C(/C=C/c1cccnc1)NCCCCC1CCN(C(=O)c2ccccc2)CC1 + CCCS(=O)(=O)Nc1ccc(F)c(C(=O)c2c[nH]c3ncc(Cl)cc23)c1F [PLX4720] (first compound 0.05 µM, partner dose 0.4 µM) | 8.82 | 20.7 | 60 | 46.8 | 62.7 | 46.2 | 19.1 | 85.7 | 106 | 43.4
17 | Cc1ccc(Nc2nccc(N(C)c3ccc4c(C)n(C)nc4c3)n2)cc1S(N)(=O)=O [Pazopanib] + CCN(CC)CCNC(=O)c1c(C)[nH]c(/C=C2\C(=O)Nc3ccc(F)cc32)c1C [sunitinib] (first compound 2 µM, partner dose 2 µM) | 63 | 72 | 109 | 53 | 150 | 84.4 | 70.2 | 78.3 | 64.5 | 124
18 | O=C(/C=C/c1cccnc1)NCCCCC1CCN(C(=O)c2ccccc2)CC1 + CS(=O)(=O)c1ccc(C(=O)Nc2ccc(Cl)c(-c3ccccn3)c2)c(Cl)c1 [vismodegib] (first compound 0.05 µM, partner dose 5 µM) | 3.48 | 26.2 | 70.1 | 64.2 | 99.7 | 48.4 | 42.3 | 89.6 | 95.8 | 40.5
19 | Cc1ccc(Nc2nccc(N(C)c3ccc4c(C)n(C)nc4c3)n2)cc1S(N)(=O)=O [Pazopanib] + C#Cc1cccc(Nc2ncnc3cc(OCCOC)c(OCCOC)cc23)c1 [erlotinib] (first compound 2 µM, partner dose 4 µM) | 60.3 | 38.7 | 81.9 | 51.9 | 101 | 59.6 | 48.9 | 66 | 51.3 | 52.3
20 | O=C(/C=C/c1cccnc1)NCCCCC1CCN(C(=O)c2ccccc2)CC1 + COc1cc(N2CCC(N3CCN(C)CC3)CC2)ccc1Nc1ncc(Cl)c(Nc2ccccc2S(=O)(=O)C(C)C)n1 [NVP-TAE684] (first compound 0.05 µM, partner dose 0.4 µM) | 3.09 | 30.6 | 65.7 | 51.3 | 79.4 | 30.4 | 33.4 | 72.8 | 110 | 16.5
21 | CC1(C)CCC(c2ccc(Cl)cc2)=C(CN2CCN(c3ccc(C(=O)NS(=O)(=O)c4ccc(N[C@H](CCN5CCOCC5)CSc5ccccc5)c(S(=O)(=O)C(F)(F)F)c4)cc3)CC2)C1 + CCN(CC)CCNC(=O)c1c(C)[nH]c(/C=C2\C(=O)Nc3ccc(F)cc32)c1C [sunitinib] (first compound 2 µM, partner dose 2 µM) | 36.3 | 77 | 94.5 | 10.2 | 61.2 | 51.1 | 46.5 | 41.5 | 25.2 | 14.2
